The values below come from the supplement of paper PMC9334596.

“And” between values parts separate entries of the source, which are not always exact repeats. Equal values may be shown once. Whole data set: some 5,300 compounds, median “PER2::LUC luminescence relative to vehicle control” near 0.96, cut for the highest 2% near 1.3. The list shows a part of the results.

The experiment concerns mPer2Luc MEF. In words: PER2::LUC luminescence relative to vehicle control (fold of vehicle); higher = higher PER2::LUC reporter signal. The note with it: 10 µM. In short, it runs like this:
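Each value gives PER2::LUC luminescence as fold of vehicle control, measured with the ONE-Glo luciferase assay system in mouse embryonic fibroblasts carrying the mPer2Luc reporter. Cells grown in DMEM with 10% FBS at 37 °C and 5% CO2 were seeded at ~3000 per well in 384-well plates. Library compounds were added at 10 μM 48 h later, and readings were taken 24 h and 30 h after treatment.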

In the case of `Nc1ccccc1C(=O)CC(N)C(=O)O` (stereo not given), the “PER2::LUC luminescence” value came to 0.995 (time after treatment 24 h) and 0.985 (time after treatment 30 h).

With `CC(C)(C)[C@H]1CC[C@H](CC2=C(O)C(=O)c3ccccc3C2=O)CC1`, the “PER2::LUC luminescence” value is 1 (time after treatment 24 h) and 0.901 (time after treatment 30 h).

Regarding `COC(=O)Nc1ccc2[nH]cc(CCNC(C)=O)c2c1`, the “PER2::LUC luminescence” value is, setting by setting: (time after treatment 24 h) 0.821; (time after treatment 30 h) 0.976.

Consider `O=C([O-])/C=C/C(=O)[O-].[Fe+2]`, for which the “PER2::LUC luminescence” value was 0.928 (time after treatment 24 h) and 0.857 (time after treatment 30 h).

As for `O=C(NC1CCN(CC(F)(F)F)CC1)c1ccc(-c2cccc(F)c2)nc1`, the “PER2::LUC luminescence” value by setting is: (time after treatment 24 h) 1.15; (time after treatment 30 h) 1.04.

Turning to `CCCOc1ccc(C(=O)OCCN(CC)CC)cc1N`, the “PER2::LUC luminescence” value was 1.03 (time after treatment 24 h) and 0.962 (time after treatment 30 h).

With `CC1=C(/C=C/C(C)=C\C=C\C(C)=C\C(=O)O)C(C)(C)CCC1`, the “PER2::LUC luminescence” value reads like this: (time after treatment 24 h) 2.08; (time after treatment 30 h) 1.87.

Regarding `O=C(NCCN1CCCCC1)c1ccc(I)cc1`, the “PER2::LUC luminescence” value came to 1.02 (time after treatment 24 h) and 0.961 (time after treatment 30 h).

In the case of `CC(=O)OCC(=O)[C@@]1(OC(C)=O)[C@@H](C)C[C@H]2[C@@H]3C[C@H](F)C4=CC(=O)C=C[C@]4(C)[C@@]3(F)[C@@H](O)C[C@@]21C`, the “PER2::LUC luminescence” value was determined as 0.727 (time after treatment 24 h) and 0.933 (time after treatment 30 h).

For the compound `CCN(CC)CCCCNc1ncc2cc(-c3cc(OC)cc(OC)c3)c(NC(=O)NC(C)(C)C)nc2n1`, the “PER2::LUC luminescence” value worked out at 0.507 (time after treatment 24 h) and 0.487 (time after treatment 30 h).

As for `C[C@]1(Cn2ccnn2)[C@H](C(=O)O)N2C(=O)C[C@H]2S1(=O)=O`, the “PER2::LUC luminescence” value was 0.936 and 1.11 (time after treatment 24 h); 0.907 and 1.1 (time after treatment 30 h).

Turning to `CN(C)CCC(c1ccc(Br)cc1)c1ccccn1` (single isomer, unassigned; (+)), the “PER2::LUC luminescence” value is, setting by setting: (time after treatment 24 h) 0.858; (time after treatment 30 h) 0.724.

For `CC[C@@H](CO)NCCN[C@@H](CC)CO`, the “PER2::LUC luminescence” value is, setting by setting: (time after treatment 24 h) 0.99 and 1.12; (time after treatment 30 h) 1.09 and 1.05.

Turning to `C/C=C/C/C=C/CCC(=O)[C@H]1O[C@H]1C(N)=O`, the “PER2::LUC luminescence” value by setting is: (time after treatment 24 h) 0.657; (time after treatment 30 h) 0.693.

Take `c1ccc2[nH]ncc2c1`: the “PER2::LUC luminescence” value is 0.963 (time after treatment 24 h) and 0.985 (time after treatment 30 h).

For the compound `CNC(=N)NCCC[C@H](N)C(=O)O`, the “PER2::LUC luminescence” value (time after treatment 24 h) was 0.86 and the “PER2::LUC luminescence” value (time after treatment 30 h) amounted to 1.01.

In the case of `CNC(=O)c1ccc(C)c(-n2c(C)cc(OCc3ccc(F)cc3F)c(Br)c2=O)c1`, the “PER2::LUC luminescence” value (time after treatment 24 h) turned out to be 0.809 and the “PER2::LUC luminescence” value (time after treatment 30 h) was 0.921.

With `COCCOc1ccc(N2CCN(CCn3ncc4c3nc(N)n3nc(-c5ccco5)nc43)CC2)cc1`, the “PER2::LUC luminescence” value is, setting by setting: (time after treatment 24 h) 1.05; (time after treatment 30 h) 0.963.

Regarding `Cc1cc(-c2ccc(/N=N/c3ccc4c(S(=O)(=O)O)cc(S(=O)(=O)O)c(N)c4c3O)c(C)c2)ccc1/N=N/c1ccc2c(S(=O)(=O)O)cc(S(=O)(=O)O)c(N)c2c1O`, the “PER2::LUC luminescence” value (time after treatment 24 h) came out at 0.992 and the “PER2::LUC luminescence” value (time after treatment 30 h) stood at 0.81.

As for `C=C1CC[C@H]2C(=C)CC[C@H]3C(=C)C(=O)O[C@@H]3[C@@H]12`, the “PER2::LUC luminescence” value reads like this: (time after treatment 24 h) 0.979; (time after treatment 30 h) 0.959.

Turning to `CC(O)c1ccc(S(=O)(=O)NC(=O)NC2CCCCC2)cc1` (stereo not given), the “PER2::LUC luminescence” value by setting is: (time after treatment 24 h) 0.967; (time after treatment 30 h) 1.12.

Take `COCCc1ccc(OCC(O)CNC(C)C)cc1` (racemic): the “PER2::LUC luminescence” value by setting is: (time after treatment 24 h) 1.22; (time after treatment 30 h) 0.971.

In the case of `Cc1cc(O)c2c(O)c3c(O)cccc3cc2c1`, the “PER2::LUC luminescence” value worked out at 0.944 (time after treatment 24 h) and 0.967 (time after treatment 30 h).

As for `C=CCSCC1Nc2cc(Cl)c(S(N)(=O)=O)cc2S(=O)(=O)N1` (stereo not given), the “PER2::LUC luminescence” value turned out to be 0.944 (time after treatment 24 h) and 0.901 (time after treatment 30 h).

For the compound `Cc1ccc(-n2nc(C(C)(C)C)cc2NC(=O)Nc2ccc(OCCN3CCOCC3)c3ccccc23)cc1`, the “PER2::LUC luminescence” value is, setting by setting: (time after treatment 24 h) 0.888 and 1.25; (time after treatment 30 h) 1.11 and 0.954.
